From PubChem BioAssay AID1030 (National Center for Advancing Translational Sciences (NCATS), 2008)
In all, about 220,000 compounds went through this assay and about 16,000 (7.3%) were called active. The inconclusive results got no clear call from the source; some entries with a clear call stand among them for comparison. Calls follow the shape of the dose curve; as a rule, active = well fitted inhibition curve with a large enough effect (not every such curve was filed as active); inconclusive = small, poorly fitted or top-dose-only effect, or another doubt; inactive = no such curve, though single readings can be large or run the other way. No potency is given beside an inconclusive call; the fits are too rough.

molecular target: Aldehyde dehydrogenase 1A1 (Homo sapiens) (UniProt P00352); assay: qHTS Assay for Inhibitors of Aldehyde Dehydrogenase 1 (ALDH1A1); settings: Purified ALDH1A1, NADH fluorescence, propionaldehyde substrate; series mostly up to 75.3 µM; activity, negative = inhibition: at the top concentration;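 as to activity, negative = inhibition: plate controls were no enzyme wells and a reference inhibitor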
Sequence of UniProt P00352 (P00352 whole entry, looked up): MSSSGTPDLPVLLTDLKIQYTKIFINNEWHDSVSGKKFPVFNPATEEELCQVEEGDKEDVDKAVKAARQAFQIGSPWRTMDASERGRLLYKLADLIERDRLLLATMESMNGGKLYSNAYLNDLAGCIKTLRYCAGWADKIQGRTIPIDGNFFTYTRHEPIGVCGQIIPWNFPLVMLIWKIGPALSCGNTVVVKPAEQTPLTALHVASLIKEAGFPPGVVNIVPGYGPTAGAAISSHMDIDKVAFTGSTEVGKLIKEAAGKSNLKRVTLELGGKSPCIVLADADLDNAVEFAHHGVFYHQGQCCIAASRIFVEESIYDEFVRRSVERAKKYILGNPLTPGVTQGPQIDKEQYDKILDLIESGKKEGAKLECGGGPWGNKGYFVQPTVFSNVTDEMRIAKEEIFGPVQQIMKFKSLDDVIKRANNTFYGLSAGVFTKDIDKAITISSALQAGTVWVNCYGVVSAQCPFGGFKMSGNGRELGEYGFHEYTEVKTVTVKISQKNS
Potency is read from the fitted curve at half-maximal effect; tags tell the direction and shape of the fitted curve.

Question: COc1cc2cc(C(c3nnnn3C3CCCC3)N3CCCCC3)c(=O)[nH]c2cc1OC (stereo unspecified) was tested. Which Potency did it give?
Answer: inconclusive [inhibitor, partial curve]

Question: For O=C1NCCCC2c3c(cc(Br)c(O)c3Br)OC12N1CCOCC1 (stereo unspecified), which Potency is on record?
Answer: active: 3.16 µM

Question: CC(=O)N(C)c1ccc(NC(=O)Nc2ccc(C)c(C)c2)cc1 was tested. Which Potency did it give?
Answer: inconclusive [inhibitor, single point]

Question: How did the “activity, negative = inhibition” value turn out when O=C(NCC1CCN(S(=O)(=O)c2ccccc2)CC1)Nc1ccc(F)cc1F was run?
Answer: inactive: -0.681%

Question: COc1ccc(C(=O)/C=C/c2ccccc2F)c(OC(=O)c2ccc([N+](=O)[O-])cc2)c1 was tested. Which Potency did it give?
Answer: inconclusive [inhibitor, single point]

Question: Which “activity, negative = inhibition” value does the source give for O=C(Nc1ccccc1Cl)OCc1cncs1 here?
Answer: inactive: -0.874%

Question: Which Potency does the source give for O=C(NC12CC3CC(CC(C3)C1)C2)c1ccc(-c2cccc(Cl)c2)o1 here?
Answer: inconclusive [inhibitor, single point]

Question: Which Potency does the source give for CC(C)c1nc(N(C)S(C)(=O)=O)nc(-c2ccc(F)cc2)c1/C=C/C(O)CC(O)CC(=O)O (stereo unspecified) here?
Answer: active: 0.224 µM

Question: For Cc1cccc(-n2c(SCC(N)=O)nc3c(c2=O)C2(CCCC2)Cc2ccccc2-3)c1, which Potency is on record?
Answer: inconclusive [inhibitor, single point]

Question: Which Potency does the source give for CC(=O)Nc1nonc1-c1nc2ccccc2n1N(C(C)=O)C(C)=O here?
Answer: inconclusive [inhibitor, single point]

Question: How did the Potency turn out when CCc1ccccc1NC(=S)N1N=CCC1c1ccccc1 (stereo unspecified) was run?
Answer: inconclusive [inhibitor, partial curve]

Question: O=C(CCCOc1ccccc1)Nc1nncs1 was tested. Which “activity, negative = inhibition” value did it give?
Answer: inactive: 1.17%

Question: With COc1cccc(CNC(=O)C(=O)NCCc2ccc(OC)c(OC)c2)c1 as the compound, how does the Potency read?
Answer: inconclusive [inhibitor, partial curve]

Question: With COCCn1c(=O)c(-c2ccccc2)nc2cnc(N(C)C)nc21 as the compound, how does the Potency read?
Answer: inconclusive [inhibitor, partial curve]

Question: For CC(Oc1cc(F)ccc1[N+](=O)[O-])C(=O)N(C)CC(=O)Nc1ccccc1C(F)(F)F (stereo unspecified), which “activity, negative = inhibition” value is on record?
Answer: inactive: 4.81%

Question: Which Potency does the source give for Cc1cc(C)c2c(CN3CCN(Cc4ccc5c(c4)OCO5)CC3)cc(=O)oc2c1 here?
Answer: active: 12.6 µM

Question: Which Potency does the source give for COc1cc(-c2c(C#N)c(N)nc3c2c(C)nn3-c2ccc(C)c(C)c2)cc(OC)c1OC here?
Answer: inconclusive [inhibitor, partial curve]

Question: Which Potency does the source give for COc1ccc([N+](=O)[O-])cc1NC(=O)C(C)OC(=O)/C=C/c1ccco1 (stereo unspecified) here?
Answer: inconclusive [inhibitor, single point]

Question: CCOC(=O)CSC1=Nc2ccccc2C2=NC(CC(=O)NCc3ccc4c(c3)OCO4)C(=O)N12 (stereo unspecified) was tested. Which Potency did it give?
Answer: inconclusive [inhibitor, partial curve]

Question: Cc1ccc(-n2ncc(Br)c(Br)c2=O)cc1 was tested. Which Potency did it give?
Answer: active: 3.16 µM

Question: For Cc1ccc(S(=O)(=O)N2CCN(C(=O)N(C)C)CC2)cc1C, which Potency is on record?
Answer: inconclusive [inhibitor, single point]

Question: How did the Potency turn out when CCc1nnc(NC(=O)CSc2ncnc3c2cnn3-c2ccc(OC)cc2)s1 was run?
Answer: inconclusive [inhibitor, partial curve]

Question: With CCOC(=O)c1c(CCl)nc2ccccc2c1C as the compound, how does the Potency read?
Answer: inconclusive [inhibitor, single point]

Question: Clc1ccc(OCCOCCOc2cccc3cccnc23)c(Br)c1 was tested. Which Potency did it give?
Answer: inconclusive [inhibitor, single point]

Question: Which “activity, negative = inhibition” value does the source give for Cc1ccc(OCC(=O)NNC(=O)C(=O)N2CCCC2)c(C)c1 here?
Answer: inactive: 1.83%

Question: Which Potency does the source give for CCCCCn1c(NC(=O)c2ccco2)c(S(=O)(=O)c2ccc(C)cc2)c2nc3ccccc3nc21 here?
Answer: inconclusive [inhibitor, partial curve]

Question: Which “activity, negative = inhibition” value does the source give for O=C(O)/C=C/c1cn(-c2ccccc2)nc1-c1cccc([N+](=O)[O-])c1 here?
Answer: inactive: 1.92%

Question: COc1ccc(-n2c(=O)c(-c3cc(F)cc(F)c3)nc3cnc(N4CCNCC4)nc32)cc1 was tested. Which Potency did it give?
Answer: inconclusive [inhibitor, partial curve]

Question: How did the “activity, negative = inhibition” value turn out when O=C1CCCCC1c1cccc2ccccc12 (stereo unspecified) was run?
Answer: inactive: 10.4%

Question: Which Potency does the source give for CC(C)(C)n1nc2c(c1NC(=O)COc1ccc3ccccc3c1)CS(=O)(=O)C2 here?
Answer: inconclusive [inhibitor, partial curve]

Question: O=C1CN(C(=O)/C=C/c2ccc(Cl)cc2)c2ccccc2N1 was tested. Which “activity, negative = inhibition” value did it give?
Answer: inactive: -12.1%

Question: CCC(C)NC(=O)C1CCN(c2nc(C)cc(C)n2)CC1 (stereo unspecified) was tested. Which Potency did it give?
Answer: inconclusive [inhibitor, single point]

Question: With Cc1nc(N/N=C/c2ccc(O)cc2)c2cnn(-c3ccccc3)c2n1 as the compound, how does the Potency read?
Answer: inconclusive [inhibitor, single point]

Question: With CC1(C)Cc2[nH]c(=S)c(C#N)cc2CO1 as the compound, how does the Potency read?
Answer: active: 2.24 µM

Question: CC1=Nc2ccccc2/C1=C/c1sc(=N)n(-c2nccs2)c1O was tested. Which Potency did it give?
Answer: inconclusive [inhibitor, single point]

Question: Which Potency does the source give for Cc1ccc(C(=O)C(C(=O)/C=C/c2ccccc2)=C2SCCCS2)cc1 here?
Answer: inconclusive [inhibitor, single point]

Question: For CCOc1cc(N2CCOCC2)c(OCC)cc1NC(=O)CN1CCN(Cc2ccc3c(c2)OCO3)CC1, which “activity, negative = inhibition” value is on record?
Answer: inactive: -3.36%

Question: For O=C(Nc1nc(-c2cccs2)cs1)c1ccco1, which Potency is on record?
Answer: inconclusive [inhibitor, single point]

Question: For COCCn1nnnc1CN(CCc1ccc(OC)c(OC)c1)Cc1cc2ccc(C)cc2[nH]c1=O, which Potency is on record?
Answer: active: 11.2 µM

Question: C=CCn1c(SCc2c(C)noc2C)nc2sc3c(c2c1=O)CCC(C)C3 (stereo unspecified) was tested. Which Potency did it give?
Answer: inconclusive [inhibitor, single point]

Question: For O=C(Nc1ccccn1)C(=O)Nc1ccccn1, which “activity, negative = inhibition” value is on record?
Answer: inactive: 7.66%

Question: Which Potency does the source give for CN1CCc2c(sc3c2C(=O)NC(c2ccccn2)N3)C1 (stereo unspecified) here?
Answer: inconclusive [inhibitor, partial curve]

Question: How did the Potency turn out when Cc1ccc(NC2c3ncccc3C(=O)N2C2CCCCC2)cc1C (stereo unspecified) was run?
Answer: inconclusive [inhibitor, single point]

Question: How did the Potency turn out when CCOn1c(=O)c(-c2cccc3ccccc23)[n+]([O-])c2ccccc21 was run?
Answer: active: 22.4 µM

Question: CCC1(c2ccccc2)NC(=O)N(Cc2cccc([N+](=O)[O-])c2)C1=O (stereo unspecified) was tested. Which “activity, negative = inhibition” value did it give?
Answer: inactive: 6.38%

Question: How did the Potency turn out when C=CCc1ccccc1OCC(=O)N/N=C/c1ccccc1OCC was run?
Answer: inconclusive [inhibitor, single point]
